Like-named read-outs stand apart in the source and are kept apart here. Each block holds one binder with its values, some of them ahead of it.
Assays:
Test in all cases: cell-based or functional assay
GDF11 [1] = molecular target: T1, GDF11 (UniProt O95390 299-407)
T1 sequence (looked up): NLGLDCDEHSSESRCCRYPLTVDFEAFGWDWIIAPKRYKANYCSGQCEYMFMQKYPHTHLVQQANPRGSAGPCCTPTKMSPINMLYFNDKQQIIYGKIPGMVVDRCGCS

BMP9 = molecular target: T2, BMP9 (UniProt Q9UK05 320-429)
T2 sequence (looked up): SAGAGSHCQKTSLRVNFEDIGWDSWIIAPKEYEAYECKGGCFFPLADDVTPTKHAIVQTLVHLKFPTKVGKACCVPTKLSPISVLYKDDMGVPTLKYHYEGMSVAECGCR

activin A [2] = molecular target: T3, activin A (UniProt P08476 311-426)
T3 sequence (looked up): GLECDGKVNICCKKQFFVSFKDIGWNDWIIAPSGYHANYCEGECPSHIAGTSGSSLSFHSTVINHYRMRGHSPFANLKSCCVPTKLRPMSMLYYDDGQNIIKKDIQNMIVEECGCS

GDF11 [3] = molecular target: T1, GDF11; remark: listed apart in the source
BMP10 = molecular target: T4, BMP10 (UniProt O95393 317-424)
T4 sequence (looked up): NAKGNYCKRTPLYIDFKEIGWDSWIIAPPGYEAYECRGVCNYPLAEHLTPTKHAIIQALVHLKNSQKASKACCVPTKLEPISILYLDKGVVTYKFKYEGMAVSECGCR

activin B = molecular target: T5, activin B (UniProt P09529 293-407)
T5 sequence (looked up): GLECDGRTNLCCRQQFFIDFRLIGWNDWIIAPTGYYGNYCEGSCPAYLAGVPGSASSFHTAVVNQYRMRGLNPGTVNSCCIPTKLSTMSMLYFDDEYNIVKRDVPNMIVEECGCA

GDF8 = molecular target: T6, GDF8 (UniProt O14793 267-375)
T6 sequence (looked up): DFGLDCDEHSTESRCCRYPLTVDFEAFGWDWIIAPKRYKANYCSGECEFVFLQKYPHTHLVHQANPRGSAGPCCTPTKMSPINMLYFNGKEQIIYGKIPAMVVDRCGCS

activin A [4] = molecular target: T3, activin A; remark: listed apart in the source

B2: variant ActRIIB-Fc homodimer K55D (Fc fusion)
chain: GRGEAETRECIYYNANWELERTNQSGLERCEGEQDDRLHCYASWRNSSGTIELVKKGCWLDDFNCYDRQECVATEENPQVYFCCCEGNFCNERFTHLPEAGGPEVTYEPPPTAPTG[sequence of human IgG1 Fc and a few adjoining residues omitted]
IC50, A204 (CAGA)12 luciferase reporter (GDF11 [1]): 0.365 µg/mL
IC50, A204 (CAGA)12 luciferase reporter (activin A [2]): 0.396 µg/mL
IC50, A204 (CAGA)12 luciferase reporter (BMP9): 5.5 µg/mL

B3: ActRIIB(L79H-F82K)-G1Fc (Fc fusion)
chain: GRGEAETRECIYYNANWELERTNQSGLERCEGEQDKRLHCYASWRNSSGTIELVKKGCWHDDKNCYDRQECVATEENPQVYFCCCEGNFCNERFTHLPEAGGPEVTYEPPPTAPTG[sequence of human IgG1 Fc and a few adjoining residues omitted]
IC50, A204 (CAGA)12 luciferase reporter (GDF11 [3]): > 100 nM
IC50, A204 (CAGA)12 luciferase reporter (BMP10): > 100 nM
IC50, A204 (CAGA)12 luciferase reporter (activin B): 0.1 nM

B4: ActRIIB(F82I)-G1Fc (Fc fusion)
chain: GRGEAETRECIYYNANWELERTNQSGLERCEGEQDKRLHCYASWRNSSGTIELVKKGCWLDDINCYDRQECVATEENPQVYFCCCEGNFCNERFTHLPEAGGPEVTYEPPPTAPTG[sequence of human IgG1 Fc and a few adjoining residues omitted]
IC50, A204 (CAGA)12 luciferase reporter (GDF11 [1]): 0.009 µg/mL
IC50, A204 (CAGA)12 luciferase reporter (activin A [2]): 0.011 µg/mL
IC50, A204 (CAGA)12 luciferase reporter (BMP9): 0.277 µg/mL

B6: ActRIIB(L79H-F82I)-G1Fc (Fc fusion)
chain: GRGEAETRECIYYNANWELERTNQSGLERCEGEQDKRLHCYASWRNSSGTIELVKKGCWHDDINCYDRQECVATEENPQVYFCCCEGNFCNERFTHLPEAGGPEVTYEPPPTAPTG[sequence of human IgG1 Fc and a few adjoining residues omitted]
IC50, A204 (CAGA)12 luciferase reporter (GDF11 [3]): 0.36 nM
IC50, A204 (CAGA)12 luciferase reporter (GDF8): > 10 nM
IC50, A204 (CAGA)12 luciferase reporter (activin A [4]): > 100 nM
IC50, A204 (CAGA)12 luciferase reporter (BMP10): > 100 nM
IC50, A204 (CAGA)12 luciferase reporter (activin B): 0.15 nM

B9: ActRIIB(F82T-N83R)-G1Fc (Fc fusion)
chain: GRGEAETRECIYYNANWELERTNQSGLERCEGEQDKRLHCYASWRNSSGTIELVKKGCWLDDTRCYDRQECVATEENPQVYFCCCEGNFCNERFTHLPEAGGPEVTYEPPPTAPTG[sequence of human IgG1 Fc and a few adjoining residues omitted]
IC50, A204 (CAGA)12 luciferase reporter (GDF11 [3]): 17.9 nM
IC50, A204 (CAGA)12 luciferase reporter (activin A [4]): 1.52 nM
IC50, A204 (CAGA)12 luciferase reporter (BMP10): 12.6 nM
IC50, A204 (CAGA)12 luciferase reporter (activin B): 0.11 nM

B12: ActRIIB(F82I-N83R)-G1Fc (Fc fusion)
chain: GRGEAETRECIYYNANWELERTNQSGLERCEGEQDKRLHCYASWRNSSGTIELVKKGCWLDDIRCYDRQECVATEENPQVYFCCCEGNFCNERFTHLPEAGGPEVTYEPPPTAPTG[sequence of human IgG1 Fc and a few adjoining residues omitted]
IC50, A204 (CAGA)12 luciferase reporter (GDF11 [3]): 9.95 nM
IC50, A204 (CAGA)12 luciferase reporter (activin A [4]): 1.67 nM
IC50, A204 (CAGA)12 luciferase reporter (BMP10): 13.2 nM
IC50, A204 (CAGA)12 luciferase reporter (activin B): 0.08 nM

Further lines, results first:

IC50, A204 (CAGA)12 luciferase reporter (GDF11 [1]): 0.389 µg/mL
IC50, A204 (CAGA)12 luciferase reporter (BMP9): ~40 µg/mL
B1: variant ActRIIB-Fc homodimer F82W/N83A (Fc fusion)
chain: GRGEAETRECIYYNANWELERTNQSGLERCEGEQDKRLHCYASWRNSSGTIELVKKGCWLDDWACYDRQECVATEENPQVYFCCCEGNFCNERFTHLPEAGGPEVTYEPPPTAPTG[sequence of human IgG1 Fc and a few adjoining residues omitted]

IC50, A204 (CAGA)12 luciferase reporter (GDF11 [1]): 0.477 µg/mL
B5: variant ActRIIB-Fc homodimer L79K (Fc fusion)
chain: GRGEAETRECIYYNANWELERTNQSGLERCEGEQDKRLHCYASWRNSSGTIELVKKGCWKDDFNCYDRQECVATEENPQVYFCCCEGNFCNERFTHLPEAGGPEVTYEPPPTAPTG[sequence of human IgG1 Fc and a few adjoining residues omitted]

IC50, A204 (CAGA)12 luciferase reporter (GDF11 [3]): 0.27 nM
IC50, A204 (CAGA)12 luciferase reporter (GDF8): 2.17 nM
IC50, A204 (CAGA)12 luciferase reporter (activin A [4]): 0.1 nM
IC50, A204 (CAGA)12 luciferase reporter (BMP10): 0.07 nM
IC50, A204 (CAGA)12 luciferase reporter (activin B): 0.09 nM
B7: ActRIIB(F82T)-G1Fc (Fc fusion)
chain: GRGEAETRECIYYNANWELERTNQSGLERCEGEQDKRLHCYASWRNSSGTIELVKKGCWLDDTNCYDRQECVATEENPQVYFCCCEGNFCNERFTHLPEAGGPEVTYEPPPTAPTG[sequence of human IgG1 Fc and a few adjoining residues omitted]

IC50, A204 (CAGA)12 luciferase reporter (activin A [4]): 1.32 nM
IC50, A204 (CAGA)12 luciferase reporter (BMP10): 0.53 nM
IC50, A204 (CAGA)12 luciferase reporter (activin B): 0.09 nM
B8: ActRIIB(F82K-N83R)-G1Fc (Fc fusion)
chain: GRGEAETRECIYYNANWELERTNQSGLERCEGEQDKRLHCYASWRNSSGTIELVKKGCWLDDKRCYDRQECVATEENPQVYFCCCEGNFCNERFTHLPEAGGPEVTYEPPPTAPTG[sequence of human IgG1 Fc and a few adjoining residues omitted]

IC50, A204 (CAGA)12 luciferase reporter (GDF11 [1]): 0.015 µg/mL
IC50, A204 (CAGA)12 luciferase reporter (activin A [2]): 0.01 µg/mL
IC50, A204 (CAGA)12 luciferase reporter (BMP9): ~5 µg/mL
B10: ActRIIB(F82K)-G1Fc (Fc fusion)
chain: GRGEAETRECIYYNANWELERTNQSGLERCEGEQDKRLHCYASWRNSSGTIELVKKGCWLDDKNCYDRQECVATEENPQVYFCCCEGNFCNERFTHLPEAGGPEVTYEPPPTAPTG[sequence of human IgG1 Fc and a few adjoining residues omitted]

IC50, A204 (CAGA)12 luciferase reporter (GDF11 [1]): 0.014 µg/mL
IC50, A204 (CAGA)12 luciferase reporter (activin A [2]): 0.019 µg/mL
IC50, A204 (CAGA)12 luciferase reporter (BMP9): 0.29 µg/mL
B11: ActRIIB(K55E)-G1Fc (Fc fusion)
chain: GRGEAETRECIYYNANWELERTNQSGLERCEGEQDERLHCYASWRNSSGTIELVKKGCWLDDFNCYDRQECVATEENPQVYFCCCEGNFCNERFTHLPEAGGPEVTYEPPPTAPTG[sequence of human IgG1 Fc and a few adjoining residues omitted]

IC50, A204 (CAGA)12 luciferase reporter (GDF11 [3]): 0.24 nM
IC50, A204 (CAGA)12 luciferase reporter (GDF8): 5.76 nM
IC50, A204 (CAGA)12 luciferase reporter (activin A [4]): > 10 nM
IC50, A204 (CAGA)12 luciferase reporter (BMP10): > 100 nM
IC50, A204 (CAGA)12 luciferase reporter (activin B): 0.07 nM
B13: ActRIIB(L79H)-G1Fc (Fc fusion)
chain: GRGEAETRECIYYNANWELERTNQSGLERCEGEQDKRLHCYASWRNSSGTIELVKKGCWHDDFNCYDRQECVATEENPQVYFCCCEGNFCNERFTHLPEAGGPEVTYEPPPTAPTG[sequence of human IgG1 Fc and a few adjoining residues omitted]

IC50, A204 (CAGA)12 luciferase reporter (GDF11 [1]): 0.011 µg/mL
IC50, A204 (CAGA)12 luciferase reporter (activin A [2]): 0.015 µg/mL
IC50, A204 (CAGA)12 luciferase reporter (BMP9): 0.122 µg/mL
B14: ActRIIB(K55A)-G1Fc (Fc fusion)
chain: GRGEAETRECIYYNANWELERTNQSGLERCEGEQDARLHCYASWRNSSGTIELVKKGCWLDDFNCYDRQECVATEENPQVYFCCCEGNFCNERFTHLPEAGGPEVTYEPPPTAPTG[sequence of human IgG1 Fc and a few adjoining residues omitted]

Reference: US20250064952A1 (ACCELERON PHARMA, published 2025)
